The supplement of paper PMC4166925
± gives the standard deviation of the averaged measurements. Whole data set: some 33,000 sequences, median “E-score (dimensionless, -0.5 to 0.5)” near -0.049, cut for the highest 2% near 0.37. The list shows a part of the results.

system: T1, PmTbr T-box DNA-binding domain (GST fusion); experiment: PBM E-score of 8-mer (E-score (dimensionless, -0.5 to 0.5)); Tbr is Tbrain of the sea star Patiria miniata (Pm) or the sea urchin Strongylocentrotus purpuratus (Sp); higher = stronger binding preference; most listed sequences are background and not binding sites; conditions: the construct has about 5 more residues each side
T1 sequence: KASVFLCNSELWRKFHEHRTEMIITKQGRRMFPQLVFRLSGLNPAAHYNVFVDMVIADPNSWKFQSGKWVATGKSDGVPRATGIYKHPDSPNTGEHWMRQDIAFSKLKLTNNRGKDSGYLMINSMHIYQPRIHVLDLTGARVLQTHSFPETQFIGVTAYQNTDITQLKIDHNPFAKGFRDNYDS
Description: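 Universal protein-binding microarray (Agilent AMADID 016060, 60-bp probes with a 35-bp variable region) incubated with 200 nM GST-fused Patiria miniata Tbr T-box DNA-binding domain (residues 272-466) in PBS pH 7.5. Scored for every ungapped 8-mer (given with its reverse complement) by the Universal PBM Analysis Suite as E-score (modified Wilcoxon-Mann-Whitney enrichment, range -0.5 to 0.5; >0.45 counts as bound) and Z-score of median probe intensity. Two replicate arrays (datasets 1 and 2).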
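Also: 200 nM protein in PBS on universal arrays averaged over duplicate arrays.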

| Sequence | PBM E-score of 8-mer |
| --- | --- |
| AGATAACT | 0.0753 ± 0.022 |
| AAGGGCCC | -0.255 ± 0.033 |
| ATCACGCG | 0.334 ± 0.023 |
| AAAAGGTG | 0.442 ± 0.012 |
| ATACTAGG | -0.155 ± 0.056 |
| GATGATAA | 0.0128 ± 0.072 |
| ATTCAAGG | -0.256 ± 0.037 |
| AACTGAGA | 0.067 ± 0.014 |
| CACAAGCA | -0.0188 ± 0.0073 |
| GGGCAACA | 0.0502 ± 0.002 |
| ACCAGCGT | 0.0104 ± 0.016 |
| CCCAATCG | -0.137 ± 0.0034 |
| AGCGTACA | -0.121 ± 0.064 |
| ATCATGGG | -0.396 ± 0.021 |
| AGAAGTTA | -0.0507 ± 0.083 |
| CCCCCGAG | -0.224 ± 0.038 |
| AGGCCCGG | -0.264 ± 0.041 |
| GGTAAGAC | -0.236 ± 0.028 |
| CTCAAATA | -0.321 ± 0.072 |
| ACAAGGCC | -0.0113 ± 0.076 |
| AGCTGGAT | -0.000465 ± 0.0011 |
| CTTATACA | 0.022 ± 0.13 |
| CTGATTTA | -0.123 ± 0.0066 |
| AAACTGGT | -0.0358 ± 0.013 |
| CCTTGAAC | -0.129 ± 0.072 |

| Sequence | PBM E-score of 8-mer |
| --- | --- |
| GACACTGA | 0.157 ± 0.016 |
| ACCAATCC | 0.0411 ± 0.059 |
| GAGTGTAC | -0.079 ± 0.061 |
| GTAGCACA | 0.227 ± 0.0045 |
| CACGTCCG | 0.26 ± 0.0099 |
| AGAGTTTA | -0.0178 ± 0.0059 |
| AGAGACAT | -0.101 ± 0.019 |
| AGTGACGA | 0.358 ± 0.016 |
| CGGACGGA | -0.135 ± 0.016 |
| GGGGTTAA | -0.255 ± 0.032 |
| ATGTTCCG | -0.156 ± 0.036 |
| AACCGGAT | -0.219 ± 0.071 |
| ACAATTAG | 0.162 ± 0.018 |
| CCCGCACC | 0.3 ± 0.031 |
| GATCATCC | -0.114 ± 0.025 |
| CTCGCGCC | 0.401 ± 0.013 |
| AGCGACTA | 0.0742 ± 0.067 |
| ACATCCTA | -0.147 ± 0.0064 |
| CAAGGCTA | -0.0345 ± 0.043 |
| ACTCTTTA | 0.0498 ± 0.13 |
| GTGCGTGA | 0.311 ± 0.013 |
| AATGCGTA | -0.0844 ± 0.072 |
| CATGCAAC | 0.199 ± 0.021 |
| AAAAGACC | -0.181 ± 0.096 |
| CCAGCGAC | -0.0756 ± 0.1 |

| Sequence | PBM E-score of 8-mer |
| --- | --- |
| CTAATAAC | 0.00645 ± 0.027 |
| AGTATAGG | -0.228 ± 0.027 |
| ATGCCGCC | -0.211 ± 0.18 |
| CTTGCATC | -0.122 ± 0.011 |
| CTTGCGAA | 0.328 ± 0.029 |
| ATCGTCGG | -0.0578 ± 0.11 |
| ACTCGTTC | -0.161 ± 0.039 |
| ACTGCGTC | -0.157 ± 0.043 |
| ACGGAAAT | -0.189 ± 0.071 |
| GAACGCAA | -0.0799 ± 0.066 |
| AACAAAAA | 0.00012 ± 0.15 |
| AGGTTAGG | -0.0806 ± 0.06 |
| ACCCAGGT | 0.18 ± 0.0094 |
| GCGAGTCA | 0.146 ± 0.027 |
| CGCAACTC | 0.199 ± 0.045 |
| TAGCACCA | 0.403 ± 0.015 |
| CCAACCGG | -0.0451 ± 0.026 |
| AGTTCCTC | -0.131 ± 0.0053 |
| TGGACCAA | -0.237 ± 0.0078 |
| ATAGACAC | 0.149 ± 0.0088 |
| GCCGATCA | 0.0187 ± 0.044 |
| GATTCGAA | 0.147 ± 0.023 |
| ACTAATTA | -0.143 ± 0.022 |
| AGATACAC | 0.126 ± 0.0017 |
| ACCGGGCT | -0.218 ± 0.006 |

| Sequence | PBM E-score of 8-mer |
| --- | --- |
| CATCACAC | 0.4576 ± 0.0032 |
| AGATTGCT | -0.171 ± 0.023 |
| CACCATCC | 0.148 ± 0.025 |
| GAACAATC | -0.017 ± 0.0059 |
| AAATCAGC | 0.0647 ± 0.069 |
| AGTGATGC | 0.0431 ± 0.022 |
| GTTGAATA | -0.108 ± 0.0019 |
| CATGCAGG | -0.125 ± 0.12 |
| CTTCGCCC | -0.0791 ± 0.096 |
| ATATCCAC | -0.00342 ± 0.0057 |
| AAATGAGC | -0.15 ± 0.021 |
| ATTCGGCG | 0.101 ± 0.024 |
| AGGCGTAT | -0.0891 ± 0.033 |
| CGTACCTC | -0.0246 ± 0.026 |
| GGCGAACA | 0.0467 ± 0.018 |
| CAACGCAA | 0.0764 ± 0.049 |
| CCCGGCGG | -0.0651 ± 0.034 |
| CGTCGTCC | -0.136 ± 0.019 |
| GCTAACAC | 0.43 ± 0.0048 |
| ACATGGGG | 0.0236 ± 0.092 |
| CCCATAAG | 0.00496 ± 0.008 |
| AATGGCTA | -0.13 ± 0.025 |
| ACCCTAGG | 0.203 ± 0.0028 |
| AGCCTCCT | -0.194 ± 0.057 |
| GGGTATGA | -0.0607 ± 0.05 |

| Sequence | PBM E-score of 8-mer |
| --- | --- |
| CCAAAAGA | -0.0901 ± 0.029 |
| CACCGACG | 0.193 ± 0.03 |
| GTTAGCAA | 0.33 ± 0.034 |
| AGGCGAGC | -0.25 ± 0.068 |
| TCGTGAGA | 0.232 ± 0.03 |
| AACCAGGC | -0.0364 ± 0.0037 |
| CTCGCACC | 0.4721 ± 0.0042 |
| AAAGGCGC | 0.206 ± 0.035 |
| TCAAGTCA | 0.0315 ± 0.049 |
| GTCCGGCA | -0.285 ± 0.11 |
| ACGTTTTC | 0.0911 ± 0.12 |
| AAGAATTC | -0.185 ± 0.055 |
| GTCTGAAC | -0.1603 ± 0.0013 |
| AAGGCGAA | -0.0352 ± 0.16 |
| ATTAAAAA | -0.208 ± 0.052 |
| AGGCAACC | -0.109 ± 0.022 |
| CCAGTGAC | 0.177 ± 0.027 |
| ACCGGCAT | -0.05 ± 0.063 |
| ATATGAAC | -0.232 ± 0.069 |
| GTCACGGA | 0.051 ± 0.034 |
| CAGATTGG | -0.135 ± 0.071 |
| ATATGGGG | 0.0105 ± 0.029 |
| AAGAAGTA | -0.131 ± 0.0061 |
| AAGATACA | -0.167 ± 0.029 |
| ATGGGGGC | -0.341 ± 0.065 |

| Sequence | PBM E-score of 8-mer |
| --- | --- |
| CAGTCCCC | 0.116 ± 0.027 |
| GGTCTGTA | -0.0886 ± 0.0071 |
| AGAGAGCG | -0.179 ± 0.017 |
| CACCAAGC | 0.145 ± 0.055 |
| CACAAATG | 0.0269 ± 0.041 |
| ACTAGACG | -0.00246 ± 0.011 |
| CAACGGAA | -0.0758 ± 0.022 |
| GCGGACCC | -0.119 ± 0.044 |
| GTACGGCA | -0.122 ± 0.0074 |
| GCTAGTGA | 0.122 ± 0.015 |
| CGGCGCAG | -0.176 ± 0.069 |
| ACCCTCAT | -0.0646 ± 0.038 |
| AGTACCAC | 0.111 ± 0.0066 |
| CCGGTTAG | -0.117 ± 0.062 |
| ATACTCCG | -0.00617 ± 0.029 |
| AACGAGTG | 0.233 ± 0.052 |
| TAACAGGA | 0.0692 ± 0.067 |
| GCCGATAC | -0.132 ± 0.033 |
| CGAAATGC | -0.0228 ± 0.008 |
| CACGCATC | 0.231 ± 0.013 |
| CAACAATA | 0.06 ± 0.0016 |
| ACCCCCCT | -0.152 ± 0.11 |
| TACTGTCA | 0.222 ± 0.022 |
| AGGATTCA | -0.0165 ± 0.1 |
| CTACCGAA | -0.107 ± 0.043 |

| Sequence | PBM E-score of 8-mer |
| --- | --- |
| CTGGAGTC | -0.396 ± 0.072 |
| CTCCAAGA | 0.00553 ± 0.041 |
| CGCCTAAC | 0.095 ± 0.0026 |
| ACTTCCCG | 0.182 ± 0.038 |
| GGCTAGTA | -0.14 ± 0.051 |
| AGTTAGGA | -0.171 ± 0.054 |
| ACCCTCGT | 0.064 ± 0.033 |
| AATTGCGC | 0.0091 ± 0.0091 |
| CATGGTAA | -0.0548 ± 0.069 |
| CTTTCCAC | 0.173 ± 0.0037 |
| ACGTATAC | 0.0634 ± 0.028 |
| GTGCGACA | 0.412 ± 0.021 |
| AGGAATGA | -0.146 ± 0.03 |
| ACGCAAGT | 0.0866 ± 0.014 |
| AGTTAGTC | 0.0468 ± 0.002 |
| CGCGGGAC | -0.0551 ± 0.027 |
| CATGGCAC | 0.217 ± 0.044 |
| CGTGGGCA | -0.0846 ± 0.031 |
| CGTATCGA | 0.0436 ± 0.059 |
| CCACTCGA | 0.0299 ± 0.037 |
| AACATTGA | -0.0887 ± 0.0012 |
| CGTGAGAA | 0.349 ± 0.039 |
